Source: PubChem BioAssay AID2675 (National Center for Advancing Translational Sciences (NCATS), 2010)
The campaign covered roughly 280,000 compounds. About 100 (0.036%) were called active. This list was built around the results that the source calls inconclusive (neither active nor inactive); the mix of calls is not that of the screen. Calls follow the shape of the dose curve; as a rule, active = well fitted inhibition curve with a large enough effect in the signal ratio, with a control signal flat (not every such curve was filed as active); inconclusive = small, poorly fitted or top-dose-only effect, or effect the other way, or a change in a side signal; inactive = no such curve, though single readings can be large or run the other way; the % refers to the signal ratio. Potencies beside an inconclusive call are fits to weak or partial responses and may not hold up. “Side channel” marks fits to a control or component signal instead of the main read-out.

Target: Muscleblind-like protein 1 (Homo sapiens) (UniProt Q9NR56)
Sequence of UniProt Q9NR56 (Q9NR56 whole entry, looked up): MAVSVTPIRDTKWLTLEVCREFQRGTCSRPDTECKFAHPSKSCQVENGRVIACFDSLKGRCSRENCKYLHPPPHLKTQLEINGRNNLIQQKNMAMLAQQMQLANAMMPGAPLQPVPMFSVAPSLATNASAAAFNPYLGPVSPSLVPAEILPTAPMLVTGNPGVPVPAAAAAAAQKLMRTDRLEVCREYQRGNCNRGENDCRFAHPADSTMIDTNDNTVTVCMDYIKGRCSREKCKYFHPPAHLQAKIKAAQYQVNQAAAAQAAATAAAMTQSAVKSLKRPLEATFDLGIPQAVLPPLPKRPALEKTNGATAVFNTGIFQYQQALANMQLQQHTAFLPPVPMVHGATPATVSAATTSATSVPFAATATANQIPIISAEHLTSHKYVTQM
Assay: qHTS Assay for Inhibitors of MBNL1-poly(CUG) RNA binding
Details: TR-FRET MBNL1-His/biotin-(CUG)12 binding, 665/545 ratio; activity change, negative = inhibition: at 57.5 µM (top of the series)
In short: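 His-tagged MBNL1 binding to biotinylated (CUG)12 RNA was measured by TR-FRET using terbium anti-His antibody (0.055 ng/ul final) and streptavidin-XL665 (5 nM final). Compounds were titrated 92 nM to 58 uM; 60 min at room temperature.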
% is scaled to controls: 0 for no effect and ±100 for the full control effect; potency is read from the fitted curve at half-maximal effect; tags tell the direction and shape of the fitted curve or compound fluorescence and quenching.

| SMILES | Potency | activity change, negative = inhibition |
| --- | --- | --- |
| Cc1nn(S(=O)(=O)c2cccc([N+](=O)[O-])c2)c(C)c1Br | inconclusive: 14.1 µM [quencher, side channel, partial curve] | – |
| COC(=O)c1c(NC(=O)c2ccc(S(=O)(=O)N3CCOCC3)cc2)sc2c1CCN(C(C)C)C2 | inconclusive: 17.8 µM [quencher, side channel, partial curve] | – |
| CCC1=NN(C(=O)Cc2ccc([N+](=O)[O-])cc2)C(O)(C(F)(F)F)C1 (centres undefined) | inconclusive: 15.8 µM [quencher, side channel, partial curve] | – |
| COCC(=O)Nc1nc(-c2ccc([N+](=O)[O-])cc2)cs1 | inconclusive: 6.31 µM [quencher, side channel, partial curve] | – |
| Cc1ccc(NC(=S)NC(C)(C)C)c([N+](=O)[O-])c1 | inconclusive: 11.2 µM [quencher, side channel, partial curve] | – |
| NNc1nnc(-c2ccccc2)c(-c2ccccc2)n1 | inconclusive: 20 µM [quencher, partial curve] | – |
| CN1CCN(S(=O)(=O)c2ccc([N+](=O)[O-])cc2)CC1 | inconclusive: 7.94 µM [quencher, side channel, partial curve] | – |
| CN(C(=O)CSc1nnc(-c2ccccc2)c(-c2ccccc2)n1)C1CCS(=O)(=O)C1 (centres undefined) | inconclusive: 12.6 µM [quencher, partial curve] | – |
| C=C(C)COc1ccc(-c2n[nH]c(C)c2-c2ccc(Br)cc2)c(O)c1 | – | inactive: -5.33% |
| Cc1ccc(NC(=S)Nc2ccc3cn[nH]c3c2)cc1 | inconclusive: 0.891 µM [quencher, side channel, single point] | – |
| CCOC(=O)c1c(NC(C)=O)sc2c1CCC(C=O)=C2Sc1ccccc1 | inconclusive: 22.4 µM [quencher, side channel, partial curve] | – |
| Cc1c(C(=O)N2c3ccccc3Sc3ccccc32)cccc1[N+](=O)[O-] | inconclusive: 0.1 µM [fluorescent, side channel, full curve, poor fit] | – |
| CCCCOc1ccc(C(=O)CCN2CCOCC2)cc1 | – | inactive: -0.19% |
| CCCCC(=O)NC(=S)Nc1cccc(Cl)c1N1CCCCC1 | – | inactive: -3.32% |
| Clc1cccc(-c2ccc(CNCc3ccccn3)o2)c1 | inconclusive: 39.8 µM [quencher, side channel, single point] | – |
| CCOc1ccc2ccccc2c1/C=N/NC(=O)c1cc(C)[nH]n1 | inconclusive: 12.6 µM [quencher, side channel, partial curve] | – |
| CCOC(=O)c1cc2c(nc1NC(=S)NCc1ccccc1)CCCC2 | inconclusive: 0.891 µM [fluorescent, side channel, partial curve] | – |
| Oc1ccc(Nc2nc(-c3ccc4ccccc4c3)cs2)cc1 | – | inactive: 5.72% |
| CC(C)N(Cc1nc(-c2ccccc2)no1)C(=O)c1ccc([N+](=O)[O-])cc1 | inconclusive: 15.8 µM [quencher, side channel, partial curve] | – |
| Cn1nc([N+](=O)[O-])nc1Oc1ccc(C(C)(C)C)cc1 | inconclusive: 20 µM [quencher, side channel, partial curve] | – |

| SMILES | Potency | activity change, negative = inhibition |
| --- | --- | --- |
| FC(F)(F)c1ccc(Cl)c(NC(=S)N/N=C/c2ccccc2Cl)c1 | – | inactive: 1.87% |
| Cc1ccc(-c2cc(-c3ccccc3)[nH]c(=S)c2C#N)cc1 | – | inactive: 125% |
| c1ccc(CCCNc2ncnc3nc[nH]c23)cc1 | inconclusive: 28.2 µM [fluorescent, side channel, partial curve] | – |
| CCC(C)(C)C(=O)Nc1cc([N+](=O)[O-])ccc1F | inconclusive: 12.6 µM [quencher, side channel, partial curve] | – |
| COc1cc2c(O)c3c(c(-c4ccc5c(c4)OCO5)c2cc1OC)C(=O)OC3 | – | inactive: 0.286% |
| O=C(Nc1cc(-c2nc3ncccc3o2)ccc1Cl)c1ccc([N+](=O)[O-])o1 | inconclusive: 2.82 µM [quencher, side channel, partial curve] | – |
| Cc1ccc(S(=O)(=O)Nc2nc3c(s2)C(=O)CC(C)(C)C3)cc1 | inconclusive: 39.8 µM [quencher, single point] | – |
| Cc1ccc(/C=N\NC(=O)CCc2n[nH]c(=O)[nH]c2=O)o1 | inconclusive: 0.794 µM [quencher, side channel, full curve, poor fit] | – |
| COc1ccc2c(c1OC)c(=O)n1c3ccc(OC(C)C(=O)NCCN4CCOCC4)cc3c3ccnc2c31 (centres undefined) | inconclusive: 7.94 µM [quencher, side channel, partial curve] | – |
| CCCn1nc([N+](=O)[O-])c(C(C#N)c2nc3ccccc3o2)c(Cl)c1=O (centres undefined) | inconclusive: 31.6 µM [quencher, single point] | – |
| Cc1ccc2c(c1)-c1c(ssc1=S)C(C)(C)N2C(=O)CSc1nncn1C | inconclusive: 14.1 µM [quencher, side channel, partial curve] | – |
| COc1ccc(CCN(C)C(=O)/C=C/c2c(Cl)nc3ccccn23)cc1OC | inconclusive: 31.6 µM [quencher, side channel, single point] | – |
| CCc1cc(N2CCOCC2)cc2c1[nH]c1ccccc12 | – | inactive: -4.41% |
| O=S(=O)(c1cccc2nonc12)N1CCCCC1 | inconclusive: 17.8 µM [quencher, side channel, partial curve] | – |
| O=c1c2ccccc2nc2n1CC/C2=C/N1CCN(c2cccc(C(F)(F)F)c2)CC1 | inconclusive: 39.8 µM [quencher, side channel, partial curve, poor fit] | – |
| Cc1cc(C(=O)NC2CCCc3c2cnn3-c2cccc(C)c2C)no1 (centres undefined) | – | inactive: 0.22% |
| Cc1[nH]c2ccccc2c1/C=C/c1cc[n+](C)cc1 | inconclusive: 11.2 µM [quencher, side channel, partial curve] | – |
| O=C(CSc1nnc2nnc3ccccc3n12)N1CCOCC1 | inconclusive: 3.16 µM [quencher, side channel, full curve] | – |
| O=C(CCN1C(=O)/C(=C\c2ccccc2)SC1=S)NCCCN1CCOCC1 | inconclusive: 1 µM [quencher, side channel, full curve] | – |
